Laboratory results as given in PubChem BioAssay AID651820 (National Center for Advancing Translational Sciences (NCATS), 2012).
Out of some 340,000 compounds screened, about 12,000 (3.5%) were called active. This list was built around the results that the source calls inconclusive (neither active nor inactive); the mix of calls is not that of the screen. Calls come from the whole dose curve; as a rule, active = well fitted inhibition curve with a large enough effect; inconclusive = small, poorly fitted or top-dose-only effect, or another doubt; inactive = no such curve, though single readings can be large or run the other way. No potency is given beside an inconclusive call; the fits are too rough.

experiment: qHTS Assay for Inhibitors of Hepatitis C Virus (HCV); settings: Huh7.5.1 HCVcc-Cre (HCVcc is cell-culture hepatitis C virus) infection, luciferase reporter, 44 h; series mostly up to 41.8 µM
In short: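 A cell-based infection assay in which seeded cells (1,000 per well) receive test compound after 4 h, are inoculated with HCVcc-Cre at approximately 0.5 moi, and are incubated 44 h before luminescence detection.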
Potency is the fitted concentration of half-maximal effect; tags give direction and shape of the fitted curve.

| SMILES | Potency |
| --- | --- |
| Cc1ccc(O)c(C(=O)CC(=O)c2cccc(F)c2)c1 | inconclusive [inhibitor, partial curve] |
| COc1ccc(CN(C)C(=O)Cn2cnc3c(OCc4ccccc4)ncnc32)cc1OC | inconclusive [inhibitor, partial curve] |
| O=C(NCc1ccc2c(c1)OCO2)C(=O)NC1CCCCC1 | inactive |
| CC(=O)c1c(C)[nH]c(C(=O)OCC(=O)NCC(C)C)c1C | inconclusive [inhibitor, partial curve] |
| Cc1ccccc1-c1nnn(CC(=O)c2ccc(S(=O)(=O)N3CCCC3)cc2)n1 | inconclusive [inhibitor, single point] |
| CC(=O)c1ccc(NC(=O)CN2CCC(C(=O)c3ccc(F)cc3)CC2)cc1 | inconclusive [inhibitor, single point] |
| COc1cc(C)ccc1OCc1cc(C(=O)N(Cc2c(C)nn(C)c2C)C2CC2)no1 | inconclusive [inhibitor, partial curve] |
| CCc1c(C)sc(NC(=O)/C=C/c2ccc3c(c2)OCO3)c1C(=O)OC | inconclusive [inhibitor, single point] |
| O=C(NCc1ccc(F)cc1)c1cccc(S(=O)(=O)N2CCOCC2)c1 | inactive |
| CCN(CC(=O)NCc1cccs1)C(=O)CCCOc1ccc(C(C)(C)C)cc1 | inconclusive [inhibitor, partial curve, poor fit] |
| CCCCn1cnc2c(oc3ccccc32)c1=O | inactive |
| Cc1ccc(NC(=O)CSCC(=O)Nc2cc(Cl)ccc2N2CCOCC2)cc1 | inconclusive [inhibitor, single point] |
| O=C(CC12CC3CC(CC(C3)C1)C2)N1CCCC1 | inconclusive [inhibitor, single point] |
| COc1ccccc1CNc1ncccn1 | inactive |
| CCOC(=O)c1ccc(NC(=O)CSc2nc3c(c(=O)n2-c2ccccc2OC)SCC3)cc1 | inconclusive [inhibitor, partial curve] |
| COC(=O)C1=C(C)Nc2sc(C(N)=O)c(N)c2C1c1ccncc1 (centres undefined) | inconclusive [inhibitor, single point] |
| CCn1c2ccccc2c2cc(Nc3cc(C)nc4ncnn34)ccc21 | inconclusive [inhibitor, partial curve] |
| O=C(Nc1cccc(O)c1)c1ccc([N+](=O)[O-])cc1Cl | inactive |
| COc1ccc2nc(N3CCCC(C(=O)NCCCN4CCN(C)CC4)C3)sc2c1 (centres undefined) | inconclusive [inhibitor, partial curve] |
| CCOC(=O)c1c(NC(=O)COC(=O)c2ccc([N+](=O)[O-])cc2)sc(C(=O)N(C)C)c1C | inconclusive [inhibitor, full curve, poor fit] |
| CN(C)c1ccc(N/C=C/C(=O)C(C)(C)C)cc1 | inconclusive [inhibitor, full curve] |
| Cc1ccc(Cn2c(C3CCCN3c3nc(C)cs3)nc3cc(C(=O)NCCCO)ccc32)cc1 (centres undefined) | inconclusive [inhibitor, full curve] |

| SMILES | Potency |
| --- | --- |
| CCCSc1oc(-c2ccco2)nc1S(=O)(=O)c1ccc(C)cc1 | inconclusive [inhibitor, single point] |
| COc1cccc(NC(=O)CN(C)C(=O)C(Sc2ccccc2)c2ccccc2)c1 (centres undefined) | inconclusive [inhibitor, partial curve, poor fit] |
| CC(C)=CCc1cc([C@@H]2CC(=O)c3ccc(O)c(CC=C(C)C)c3O2)ccc1O | inconclusive [inhibitor, partial curve, poor fit] |
| COc1ccc(C)cc1NC(=O)C1CC1c1ccccc1 (centres undefined) | inconclusive [inhibitor, single point] |
| COc1ccc(NC(=O)C(Sc2ccccc2)c2ccccc2)c(OC)c1 (centres undefined) | inconclusive [inhibitor, single point] |
| CCOc1ccc(C(C)=O)cc1COc1ccc(-c2nnco2)cc1 | inconclusive [inhibitor, single point] |
| O=[N+]([O-])c1cc([N+](=O)[O-])c2cc3ccccc3nc2c1 | inconclusive [inhibitor, partial curve, poor fit] |
| CC(=O)NC(c1ccco1)c1ccc2cccnc2c1O (centres undefined) | active: 7.94 µM |
| O=S(=O)(NCCC1=CCCCC1)c1cccc(Br)c1 | inconclusive [inhibitor, single point] |
| CCCC(=O)Nc1ccc(-c2csc(NNC(C)=O)n2)cc1 | inconclusive [inhibitor, partial curve] |
| COc1ccc(OC)c(-n2nnnc2SCC(=O)Nc2nc(C)c(C)s2)c1 | inconclusive [inhibitor, full curve] |
| CCc1cc(=O)oc2cc(OC(C)C(=O)NCC(O)c3ccccc3)c(Cl)cc12 (centres undefined) | inconclusive [inhibitor, partial curve] |
| CCOc1ccc(NC(=O)COc2ccc(C(=O)NCc3cccnc3)cc2OC)cc1 | inconclusive [inhibitor, partial curve] |
| O=C(c1cnn2c1NC(c1ccc(Br)cc1)CC2C(F)(F)F)N1CCN2CCCC2C1 (centres undefined) | inconclusive [inhibitor, partial curve] |
| Cc1ccc(S(=O)(=O)Oc2ccccc2-c2ccccc2)cc1 | inconclusive [inhibitor, partial curve] |
| CCCCN1C[C@H](CO)Oc2cccc(F)c2S1(=O)=O | active: 0.562 µM |
| O=C(c1ccc2c(c1)[nH]c(=S)n1c3ccccc3nc21)N1CCN(c2cccc(Cl)c2)CC1 | inconclusive [inhibitor, full curve, poor fit] |
| Cc1ccc(NS(=O)(=O)c2sc3ccc(Cl)cc3c2C)cc1 | inconclusive [inhibitor, partial curve, poor fit] |
| COC(=O)C1CCN(C(=O)COc2cc3sc(C)nc3c3sccc23)CC1 | inconclusive [inhibitor, partial curve] |
| O=S(=O)(N/N=C/c1cn(Cc2ccccc2)c2ccccc12)c1ccccc1 | inconclusive [inhibitor, partial curve] |
| CN(C)CCCNC(=O)/C(=C\C=C\c1ccccc1)NC(=O)c1ccc([N+](=O)[O-])cc1 | inconclusive [inhibitor, single point] |
| O=Cc1cc2ccccc2nc1SCc1ccc(Cl)cc1 | inconclusive [inhibitor, single point] |

| SMILES | Potency |
| --- | --- |
| CCc1sc(C(=O)N2CCc3ccccc32)cc1C | inconclusive [inhibitor, single point] |
| COc1ccc(N2CCN(C(=O)CC(C)S(=O)(=O)c3ccc4c(c3)NC(=O)CO4)CC2)cc1 (centres undefined) | inconclusive [inhibitor, single point] |
| C=CCN(CC=C)S(=O)(=O)c1ccc(NC(=S)NC(=O)C2CC2)cc1 | inconclusive [inhibitor, partial curve] |
| CCCOC(=O)c1ccc(-[n+]2c(-c3ccccc3)cc(-c3ccccc3)cc2-c2ccccc2)cc1 | inconclusive [inhibitor, partial curve, poor fit] |
| Cc1ccc(S(=O)(=O)N2CCCC2C(=O)Nc2nc3c(s2)CCCC3)cc1 (centres undefined) | inconclusive [inhibitor, single point] |
| Cc1cc(NC(=O)CCS(=O)(=O)c2ccc3c(c2)NC(=O)C(C)S3)ccc1Br (centres undefined) | inconclusive [inhibitor, single point] |
| CC(CO)(CO)NCc1ccc(-c2ccccc2)cc1 | inconclusive [inhibitor, partial curve] |
| O=C(Cc1c(C(=O)O)[nH]c2ccc(Cl)cc12)Nc1ccc2c(c1)OCCO2 | inconclusive [inhibitor, single point] |
| COc1ccccc1CNCC(O)Cn1c2ccccc2c2ccccc21 (centres undefined) | active: 11.2 µM |
| COC(=O)c1cc(OC)c(OC)cc1NCC(=O)Nc1cccc(C(F)(F)F)c1 | inconclusive [inhibitor, single point] |
| O=c1c2cccc3c2c(nn1CN1CCOCC1)-c1ccccc1-3 | inconclusive [inhibitor, single point] |
| COc1cccc2c(=O)n(CC(=O)N3CCCc4ccccc43)ccc12 | inactive |
| CCn1cnc2c1c(=O)n(CC(=O)Nc1ccc3c(c1)OC(F)(F)O3)c(=O)n2Cc1ccccc1 | inconclusive [inhibitor, single point] |
| COc1ccccc1CNC(=O)c1cccc(NC(=O)c2ccccc2)c1 | active: 14.1 µM |
| COc1ccc(-n2c(C)cc(C(=O)COC(=O)c3cc(NC(=O)c4cccs4)c(OC)c(OC)c3)c2C)cc1 | inactive |
| CN1CCCC(OC(=O)c2cccc(Br)c2)C1 (centres undefined) | inconclusive [inhibitor, partial curve] |
| COc1ccc(C(=O)c2ccccc2)cc1Br | inactive |
| O=C(C1CCCN(S(=O)(=O)c2cccc3nonc23)C1)N1CCN(c2ccccc2)CC1 (centres undefined) | inconclusive [inhibitor, single point] |
| O=C(CCSc1nc(-c2ccc3c(c2)OCO3)cc(C(F)(F)F)n1)NCc1ccccc1 | inconclusive [inhibitor, partial curve] |
| Cc1ccn2cc(-c3cccc(S(=O)(=O)N4CC(C)OC(C)C4)c3)nc2c1 (centres undefined) | inconclusive [inhibitor, single point] |
